Results taken from paper PMC6919601, “Identification of Plasmodium dipeptidyl aminopeptidase allosteric inhibitors by high throughput screening” (PLoS ONE, 2019).
About 230 (0.21%) of roughly 110,000 compounds showed an effect of 50% or more. The list shows a part of the results.

target: DPAP1 (Plasmodium falciparum, UniProt Q8IIJ9); assay: primary screen, percent inhibition; read by cleavage of a fluorogenic dipeptide substrate; higher = more effect of the substance; set-up: species or system P. falciparum D10 trophozoite lysates; single well
Sequence (Q8IIJ9 whole entry, looked up): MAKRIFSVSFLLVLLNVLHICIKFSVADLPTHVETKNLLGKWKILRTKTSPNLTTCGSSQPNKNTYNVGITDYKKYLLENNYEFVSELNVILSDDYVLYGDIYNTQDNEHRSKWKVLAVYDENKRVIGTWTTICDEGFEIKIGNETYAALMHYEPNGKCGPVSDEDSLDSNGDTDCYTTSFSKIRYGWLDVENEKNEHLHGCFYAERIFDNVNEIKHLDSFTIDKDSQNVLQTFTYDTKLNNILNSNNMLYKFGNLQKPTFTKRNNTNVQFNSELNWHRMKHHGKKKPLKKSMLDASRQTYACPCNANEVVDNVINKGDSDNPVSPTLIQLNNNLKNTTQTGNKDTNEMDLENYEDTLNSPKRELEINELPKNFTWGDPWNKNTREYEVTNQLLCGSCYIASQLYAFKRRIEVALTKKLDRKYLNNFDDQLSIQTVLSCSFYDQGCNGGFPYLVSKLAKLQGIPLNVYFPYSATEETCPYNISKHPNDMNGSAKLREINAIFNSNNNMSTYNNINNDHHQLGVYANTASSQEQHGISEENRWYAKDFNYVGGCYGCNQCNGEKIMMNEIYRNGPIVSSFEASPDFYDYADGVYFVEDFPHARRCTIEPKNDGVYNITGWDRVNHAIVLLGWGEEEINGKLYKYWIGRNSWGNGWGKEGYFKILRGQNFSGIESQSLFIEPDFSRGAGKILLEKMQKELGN
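Further: 30 min substrate incubation versus DMSO and 10 µM JCP410 controls.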

Row | Compound | % Inhibition @ 10 uM [%]
1 | CCOC(=O)c1oc2ccc3c(c2c1C)C(=O)CC(C)(C)O3 | 3.29
2 | CC1CCc2onc(C(=O)NCc3ccccn3)c2C1 (centres unmarked) | -10.8
3 | CCOC(=O)C1=CN(Cc2ccc(F)cc2)C=C(C(=O)OCC)C1c1cc(OC)c(OC)c(OC)c1 | -3.23
4 | CS(=O)(=O)N(CC(=O)Nc1ccc(Cl)c(C(F)(F)F)c1)C1CCCCC1 | 0.709
5 | CCc1ccc(-n2nnc(-c3nc(-c4ccc(Cl)cc4)no3)c2N)cc1 | -7.18
6 | O=C(CN1CCCCC1)N1Cc2ccccc2CCc2ccccc21 | 1.25
7 | O=C1CN(C(=O)COc2ccccc2)CCN1 | -1.33
8 | OCC(CO)(CO)N(CC1CCCCC1)CC1CCCCC1 | 2.6
9 | COc1ccc(C(=O)OCCNC(=O)c2cccnc2)cc1 | 3.82
10 | Nc1cc(N)nc(SCC(=O)Nc2ccccc2C(F)(F)F)n1 | -0.519
11 | CN1CCN(c2ccc(N3CCN(C(=O)NC4(C(=O)NCC#N)CCCCC4)CC3)cc2)CC1 | -4.72
12 | Cn1c(=O)c2c(nc(CN3CCN(C(=O)c4ccco4)CC3)n2CC(=O)c2ccccc2)n(C)c1=O | 0.102
13 | CC(C)c1ccc(S(=O)(=O)/N=C2/C=CC(=O)c3ccccc32)cc1 | 5.12
14 | Cc1cc(NCc2ccccc2)nc(-c2ccccc2O)n1 | 6.15
15 | O=C(O)Cn1c(=S)sc2ccccc21 | 0.035
16 | CCCCc1[nH]nc2c1C(c1ccc(OCCN3CCOCC3)c(OCC)c1)C(C#N)=C(N)O2 (centres unmarked) | -2.9
17 | CC(=O)c1ccccc1OCC(O)Cn1c(C(C)C)nc2ccccc21 (centres unmarked) | 2.31
18 | C=CCOc1ccc(Br)cc1/C=C1/SC(=O)NC1=O | 0.528
19 | O=c1oc2cc3occ(-c4ccccc4)c3cc2c2c1CCC2 | -2.57
20 | O=C(Nc1nc2ccccc2s1)C1CCCN(c2ncnc3c2nc2n3CCCCC2)C1 (centres unmarked) | 4.61
21 | CC1(C)CC(NC(=O)Cn2nc(-c3ccc(Cl)cc3)c3ccccc3c2=O)CC(C)(C)N1 | 3.81
22 | Cc1nonc1OCC(C)(COc1nonc1C)NC(=O)c1ccc(Cl)cc1 | -0.297
23 | COc1ccc(S(=O)(=O)N2CCCC2)cc1C(=O)N1CCOCC1 | 1.32
24 | CC(C)(C)C1CCc2c(sc3nnn(CC(=O)NCCc4ccccc4)c(=O)c23)C1 (centres unmarked) | -4.54
25 | CCCOc1ccc(C(=O)C2=C(O)C(=O)N(Cc3cccnc3)C2c2ccccc2)cc1 (centres unmarked) | -3.87

Row | Compound | % Inhibition @ 10 uM [%]
26 | COc1ccc(/C(O)=C(\C#N)c2nc3ccccc3n2C)cc1OC | 28.7
27 | O=C1CC(c2ccccc2)NC(SCC(=O)Nc2cccc3ccccc23)=N1 (centres unmarked) | -7.55
28 | Cc1ccc2c(Cl)c(C(=O)NCc3ccccn3)sc2c1 | -0.413
29 | O=C(O)C1CCCCC1C(=O)N1CCN(c2ccc(Cl)cc2)CC1 (centres unmarked) | -1.2
30 | O=C1CCCC2=C1C(c1ccccc1C(F)(F)F)Nc1ccc3ccccc3c12 (centres unmarked) | -4.93
31 | CCOc1ccc2nc(NC(=O)COc3ccccc3C)sc2c1 | 3.91
32 | Cn1c(N2C(=O)CC(Cc3ccc(Cl)cc3)C2=O)nc2ccccc21 (centres unmarked) | 18.2
33 | CC(Oc1ccccc1)C(=O)Nc1cccnc1Cl (centres unmarked) | 2.5
34 | O=C(NCC1CCCO1)c1ccc(-n2cnc3cccnc32)cc1 (centres unmarked) | -1.3
35 | Cc1nnc(O)c2c(C)[nH]c(C)c12 | 4.79
36 | O=Cc1cn(-c2nc(-c3ccccc3)c3cc(Br)ccc3n2)nc1-c1ccccc1 | 2.86
37 | CCN(CC)CCCCOc1ccc(Cl)cc1 | -1.62
38 | Cc1nc2sc3c(c2c2nnnn12)CCCC3 | 6.02
39 | Clc1ccc(CNCc2cccnc2)cc1 | -0.771
40 | CC(=O)Nc1ccc(S(=O)(=O)Nc2ccccc2C(=O)NCCc2ccccc2)cc1 | 1.17
41 | COc1ccc(S(=O)(=O)NCCc2ccc(OC)c(OC)c2)cc1C | -1.89
42 | COc1ccc(-n2nnc(C(N)=O)c2C)cc1Cl | 11.2
43 | Cc1nn(C)cc1C(=O)c1ccccc1 | -4.43
44 | COc1ccc(OC)c(CN2CCc3ccccc3C2)c1 | 1.55
45 | CCCOc1c(Cl)cc(C(=O)N(Cc2sccc2C)C2CCS(=O)(=O)C2)cc1Cl (centres unmarked) | -2.85
46 | COc1cccc(C2CC(=O)N3CN(Cc4ccco4)CSC3=C2C#N)c1OC (centres unmarked) | 18.7
47 | COc1ccc(Cl)cc1NC(=O)CSCc1cccc(Br)c1 | -0.0217
48 | CC1=C(C(=O)Nc2ccccc2)C(c2ccco2)C(C#N)=C(SCC(=O)Nc2ccc(C)c(C)c2)N1 (centres unmarked) | 3.46
49 | CCC(=O)c1c(-c2ccc(Cl)cc2)nc2n(CCN3CCCCC3)c3ccccc3n12 | -3.77
50 | COc1ccc(-c2cc(C(F)(F)F)n3ncc(C(=O)NCC4CCCO4)c3n2)cc1 (centres unmarked) | -4.84
